Source: the supplement of paper PMC3334620
Over roughly 33,000 sequences, “E-score (-0.5 to 0.5)” has its median near -0.032; the highest 2% begin near 0.36. This is one part of the list.

Biological target: T1, Sko1 (UniProt Q02100)
T1 sequence: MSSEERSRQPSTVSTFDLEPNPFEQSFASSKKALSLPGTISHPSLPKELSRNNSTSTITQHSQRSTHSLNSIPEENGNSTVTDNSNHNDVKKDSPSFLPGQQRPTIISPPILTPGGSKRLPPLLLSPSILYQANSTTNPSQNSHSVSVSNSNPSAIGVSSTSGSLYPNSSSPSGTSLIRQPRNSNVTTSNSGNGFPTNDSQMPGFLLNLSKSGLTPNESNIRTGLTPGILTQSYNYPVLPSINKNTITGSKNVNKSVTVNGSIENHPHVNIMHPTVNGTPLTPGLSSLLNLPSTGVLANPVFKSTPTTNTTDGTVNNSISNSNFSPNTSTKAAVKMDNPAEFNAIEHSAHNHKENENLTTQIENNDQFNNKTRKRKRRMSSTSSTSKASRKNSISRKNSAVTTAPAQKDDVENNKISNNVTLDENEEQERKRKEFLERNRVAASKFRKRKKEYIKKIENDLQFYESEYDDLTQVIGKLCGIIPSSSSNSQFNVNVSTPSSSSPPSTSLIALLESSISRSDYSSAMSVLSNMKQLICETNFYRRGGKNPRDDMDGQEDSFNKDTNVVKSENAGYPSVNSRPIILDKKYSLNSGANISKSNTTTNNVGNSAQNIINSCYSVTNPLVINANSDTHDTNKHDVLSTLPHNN
Test: PBM E-score (8-mer binding enrichment) (E-score (-0.5 to 0.5)); higher = stronger / more preferred TF binding; most listed sequences are background and not binding sites
Details: protein concentration: 200 nM; construct: GST-full length
In short: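 Universal all-10-mer Agilent arrays, fresh or stripped once, were converted to double-stranded form by primer extension. GST-tagged yeast transcription factors from PURExpress in vitro transcription/translation, full-length or DNA-binding domain only, were applied at about 100-200 nM and detected with fluorescent anti-GST. After masliner normalisation, the Universal PBM Analysis Suite scored each ungapped eight-base word together with its reverse complement by E-score.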

Row | Sequence | PBM E-score
1 | ATTACCCG | -0.0393
2 | CTCCGCTC | -0.0649
3 | ACACGGCA | -0.0716
4 | TCAGCTCA | 0.0362
5 | CTGTTCAC | -0.13
6 | CATCAATG | 0.108
7 | CACTGACA | 0.0149
8 | AAAGTCTG | -0.0734
9 | CTCCGGTA | -0.0659
10 | GCAGGGGC | -0.109
11 | GTCTGATA | -0.114
12 | AGAAACCG | -0.141
13 | CGCTCTAC | 0.0256
14 | TATTGGAA | 0.214
15 | ACTTTACA | 0.158
16 | ATTGCCGG | -0.274
17 | CAGCGCAC | -0.246
18 | AGGCTCGG | -0.362
19 | CCCGACTA | -0.368
20 | CGGATAAA | 0.148
21 | TCGGGAAA | 0.0127
22 | GTCTAATA | 0.277

Row | Sequence | PBM E-score
23 | TATGATAA | 0.247
24 | AAACGCAT | 0.0801
25 | CCATCCGA | -0.104
26 | ATTTGACA | 0.198
27 | ATAATCAA | 0.0594
28 | GCAATTTA | 0.117
29 | AGAGTGCC | -0.231
30 | CGGCGGAG | -0.304
31 | CTAAGGGC | -0.249
32 | AAAGTAGA | 0.0277
33 | GCACTGGA | -0.0985
34 | GATCGCTA | -0.056
35 | CCTGCTCG | -0.328
36 | CTCGACGA | -0.0837
37 | GCCAATCC | -0.138
38 | CTCAGGGA | -0.416
39 | ATGCGGCA | -0.0793
40 | ACGTATAG | 0.437
41 | GACTAAAA | 0.0454
42 | AACTTACC | -0.0258
43 | CTAACAAC | -0.0133
44 | GTTTCCAA | -0.0577

Row | Sequence | PBM E-score
45 | ATGCGCAG | -0.0369
46 | ATAGGATA | -0.0824
47 | AGTCCCTA | -0.165
48 | GGGTCAAA | 0.0542
49 | ACGGCGGG | -0.167
50 | CGGGGCGC | -0.313
51 | GGAGCAAA | -0.153
52 | TTCAGAAA | -0.0753
53 | CAAGCCTC | -0.212
54 | CCAAACCC | -0.0346
55 | AACAGGCC | -0.333
56 | ATGTAATG | 0.321
57 | TAATTGGA | 0.0719
58 | AAGTGATA | 0.06
59 | AAGTTTCG | 0.0656
60 | ACCTCAAT | 0.219
61 | CGAATATA | 0.128
62 | CGATCAGA | 0.0873
63 | AGTACTTG | 0.16
64 | CGGGCACA | -0.295
65 | CTCCAGGA | -0.0718
66 | GCCGATAA | -0.0997

Row | Sequence | PBM E-score
67 | CACGGAGA | -0.193
68 | AACATGTT | 0.0183
69 | TAAAATCA | 0.118
70 | CGACCGCC | -0.152
71 | GACACACC | -0.0226
72 | TGAGCCAA | -0.0877
73 | CTATGCAC | -0.0508
74 | CAACTGGA | -0.157
75 | AAGAATTG | 0.114
76 | GATGCGCC | -0.104
77 | TAGCCATA | 0.0536
78 | ATGGGAGC | -0.176
79 | ACGCTAGC | -0.0402
80 | AGAATTAC | 0.283
81 | CTCACACA | -0.11
82 | GAATGTCA | 0.184
83 | CCAGACCA | -0.162
84 | GCTAGAAA | 0.0276
85 | TGACACAA | 0.194
86 | AATGTGTC | 0.0196
87 | CCATCCCA | -0.232
88 | CCCTTAGA | -0.101

Row | Sequence | PBM E-score
89 | CGTTCTCA | 0.112
90 | GGTTCGAC | -0.0891
91 | CAACCATC | -0.213
92 | ACTACGCA | 0.367
93 | CAGAGAGC | -0.306
94 | AACGGGCC | -0.0873
95 | AGTGCATA | 0.0433
96 | ATCTCCCC | -0.331
97 | ACAAATTA | 0.287
98 | ATGGGTCA | -0.0258
99 | GATCAAGA | 0.0938
100 | CACCGAGG | -0.271
101 | AACGCGGG | -0.087
102 | AATGAAAC | 0.0613
103 | CATCAGCC | -0.0761
104 | AAACTCGG | 0.0107
105 | ACCTCCTG | -0.198
106 | ACCCTGGG | -0.146
107 | AGATATTA | 0.00673
108 | CCAGCCAG | -0.335
109 | GCGATCCA | -0.0815
